Values marked as one replicate rest on one cluster of the flow cell; about a third of the high ones do not repeat.
test system: ATP; experiment: switch fluorescence ratio, 500 uM ATP over buffer (Cy3 cluster intensity, sum of 5 cycles each) (fold (ratio)); higher = stronger signal-on switching upon ATP binding; sequences stand for … in TCGTCGGCAGCGTCAGATGTGTATAAGAGACAGTTTTTTTTTTTTTTTTTTTTTTTTT…TC; settings: aptamer strand: ATP DNA aptamer (quencher-CACCTGGGGGAGTATTGCGGAGGAAGG + anchor), 100 nM annealed; ATP concentration: 500 uM; one replicate
In short: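 Between each of five buffer/ATP cycles, the flow-cell was stripped with NaOH and re-annealed. Each cycle imaged Cy3-labelled switching-strand clusters, annealed to 100 nM quencher-labelled ATP aptamer on a modified Illumina MiSeq flow-cell, first in selection buffer and then after 15 min with 500 uM ATP at 22 °C. The fluorescence ratio is summed target-cycle over summed buffer-cycle Cy3 intensity per cluster, averaged per switch-domain sequence, with clusters outside 100-1000 RFU excluded.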
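Further: ATP exposure 15 min at 22 °C before imaging.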

Sequence	switch fluorescence ratio
CCGTGATCAA	1.61
CCGTGCCAA	3.89
CCGTGGCGAA	1.77
CCGTGGTACG	1.27
CCGTGTACC	1.38
CCGTGTATGG	1.02
CCGTGTGCGG	0.979
CCGTTAGACC	1.57
CCGTTATGGC	1.33
CCGTTCACAG	1.17
CCGTTCTAAG	1.02
CCGTTCTT	0.947
CCGTTGGAGG	1.02
CCGTTTCGGG	0.986
CCGTTTTACT	2.64
CCGTTTTGTA	1.06
CCTAAATCGT	1.02
CCTAAGCAAG	2.94
CCTAAGTAGT	1.03
CCTAAGTCGC	1.11
CCTAATCAGA	0.953
CCTAATGGCA	0.968
CCTAATTTTC	0.973
CCTACAAACA	1.26
CCTACAATAG	4.45
CCTACATATT	1.04

Sequence	switch fluorescence ratio
CCTACCAAAG	2.46
CCTACCCTAC	4.5
CCTACGGAGC	5
CCTACGGGAA	1.13
CCTACTATTG	1.03
CCTAGATATA	1.01
CCTAGGGTGA	1.08
CCTAGTTCGC	1.08
CCTAGTTCTC	1.05
CCTATCATGG	1
CCTATGATGA	1.07
CCTATGCCCC	1.12
CCTATTACGT	1.04
CCTATTGAGA	0.954
CCTCAAGAGT	2.51
CCTCAATCGG	1.36
CCTCACGGCG	1.17
CCTCAGATTC	1.78
CCTCATTCAC	1.76
CCTCATTCAT	1.13
CCTCCGGCG	4.37
CCTCGACGGT	1.2
CCTCGATTTA	1.02
CCTCGCGGGT	1.53
CCTCGGTCTA	2.43
CCTCGTGCTT	2.09

Sequence	switch fluorescence ratio
CCTCTAGGGG	1.41
CCTCTATAGA	1.33
CCTCTCCCCG	1.23
CCTCTTCGGC	1.05
CCTGAACTGT	0.989
CCTGAAGAGC	1.02
CCTGACATTT	1.21
CCTGAGCAGA	2.08
CCTGAGCCGG	1.02
CCTGCCCACC	1.48
CCTGCTGCAG	1.32
CCTGCTGGCT	1.15
CCTGGGGCGA	1.59
CCTGGGTCTC	3.18
CCTGGTCGGG	1.01
CCTGGTGTG	1.1
CCTGTACCGC	2.39
CCTGTATGAT	0.996
CCTGTCGCCG	1.01
CCTGTCTGCA	1.51
CCTGTGCGG	1.43
CCTGTGTTGT	1
CCTGTTCTGT	1.35
CCTGTTGGTC	0.984
CCTTAAGGGC	1.02

From the supplement of paper PMC10126150
